The list shows a part of the results.
Assays:
Experiment in all cases: glycan array binding signal (z-score within array); higher = stronger binding
Settings in all cases: glycan notation: IUPAC condensed, linker removed
[1] = target: Gal(b1-3)GalNAc(b1-3)Gal(a1-4)Gal(b1-4)Glc
Outline: (§1)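 Glycan array data came from 3228 arrays in the Consortium for Functional Glycomics database, and only arrays with an available protein sequence were kept. Glycan names were put into IUPAC-condensed notation, and columns mapping to the same glycan were averaged. The binding signal is a within-array Z-score, averaged across arrays of one protein sequence run at different concentrations or buffers and across linkers. A negative Z-score can be read as non-binding.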

[2] = target: Gal(b1-3)GalNAc(b1-4)Gal(b1-4)Glc
Outline: as §1

[3] = target: Gal(b1-3)GalNAc(b1-4)[Neu5Ac(a2-3)]Gal(b1-4)Glc
Outline: as §1

Gal(b1-3)GlcNAc = target: Gal(b1-3)GlcNAc
Outline: as §1

[4] = target: Gal(b1-3)GlcNAc(a1-3)Gal(b1-4)GlcNAc
Outline: as §1

[5] = target: Gal(b1-3)GlcNAc(a1-6)Gal(b1-4)GlcNAc
Outline: as §1

Gal(b1-3)GlcNAc(b1-2)Man = target: Gal(b1-3)GlcNAc(b1-2)Man
Outline: as §1

[6] = target: Gal(b1-3)GlcNAc(b1-2)Man(a1-3)[Gal(b1-3)GlcNAc(b1-2)Man(a1-6)]Man(b1-4)GlcNAc(b1-4)GlcNAc
Outline: as §1

[7] = target: Gal(b1-3)GlcNAc(b1-2)Man(a1-3)[Gal(b1-3)GlcNAc(b1-2)Man(a1-6)]Man(b1-4)GlcNAc(b1-4)[Fuc(a1-6)]GlcNAc
Outline: as §1

[8] = target: Gal(b1-3)GlcNAc(b1-2)Man(a1-3)[GlcNAc(b1-4)][Gal(b1-3)GlcNAc(b1-2)Man(a1-6)]Man(b1-4)GlcNAc(b1-4)GlcNAc
Outline: as §1

[9] = target: Gal(b1-3)GlcNAc(b1-2)[Gal(b1-3)GlcNAc(b1-6)]Man(a1-6)[Gal(b1-3)GlcNAc(b1-2)Man(a1-3)]Man(b1-4)GlcNAc(b1-4)GlcNAc
Outline: as §1

[10] = target: Gal(b1-3)GlcNAc(b1-3)Gal(b1-3)GlcNAc
Outline: as §1

[11] = target: Gal(b1-3)GlcNAc(b1-3)Gal(b1-4)Glc
Outline: as §1

[12] = target: Gal(b1-3)GlcNAc(b1-3)Gal(b1-4)GlcNAc
Outline: as §1

[13] = target: Gal(b1-3)GlcNAc(b1-3)Gal(b1-4)GlcNAc(b1-2)Man(a1-3)[Gal(b1-3)GlcNAc(b1-3)Gal(b1-4)GlcNAc(b1-2)Man(a1-6)]Man(b1-4)GlcNAc(b1-4)GlcNAc
Outline: as §1

[14] = target: Gal(b1-3)GlcNAc(b1-3)Gal(b1-4)GlcNAc(b1-2)[Gal(b1-3)GlcNAc(b1-3)Gal(b1-4)GlcNAc(b1-6)]Man(a1-6)[Gal(b1-3)GlcNAc(b1-3)Gal(b1-4)GlcNAc(b1-2)Man(a1-3)]Man(b1-4)GlcNAc(b1-4)[Fuc(a1-6)]GlcNAc
Outline: as §1

[15] = target: Gal(b1-3)GlcNAc(b1-3)Gal(b1-4)GlcNAc(b1-3)Gal(b1-4)GlcNAc(b1-2)[Gal(b1-3)GlcNAc(b1-3)Gal(b1-4)GlcNAc(b1-3)Gal(b1-4)GlcNAc(b1-6)]Man(a1-6)[Gal(b1-3)GlcNAc(b1-3)Gal(b1-4)GlcNAc(b1-3)Gal(b1-4)GlcNAc(b1-2)Man(a1-3)]Man(b1-4)GlcNAc(b1-4)[Fuc(a1-6)]GlcNAc
Outline: as §1

[16] = target: Gal(b1-3)GlcNAc(b1-3)Gal(b1-4)GlcNAc(b1-6)[Gal(b1-3)GlcNAc(b1-3)]Gal(b1-4)Glc
Outline: as §1

[17] = target: Gal(b1-3)GlcNAc(b1-3)Gal(b1-4)[Fuc(a1-3)]GlcNAc
Outline: as §1

[18] = target: Gal(b1-3)GlcNAc(b1-3)Gal(b1-4)[Fuc(a1-3)]GlcNAc(b1-6)[Gal(b1-3)GlcNAc(b1-3)]Gal(b1-4)Glc
Outline: as §1

[19] = target: Gal(b1-3)GlcNAc(b1-3)GalNAc
Outline: as §1

[20] = target: Gal(b1-3)GlcNAc(b1-6)Gal(b1-4)GlcNAc
Outline: as §1

[21] = target: Gal(b1-3)GlcNAc(b1-6)GalNAc
Outline: as §1

[22] = target: Gal(b1-3)GlcNAc(b1-6)[Gal(b1-3)]GalNAc
Outline: as §1

Gal(b1-3)GlcNAc6S = target: Gal(b1-3)GlcNAc6S
Outline: as §1

[23] = target: Gal(b1-3)[Fuc(a1-4)]GlcNAc
Outline: as §1

[24] = target: Gal(b1-3)[Fuc(a1-4)]GlcNAc(b1-2)Man
Outline: as §1

[25] = target: Gal(b1-3)[Fuc(a1-4)]GlcNAc(b1-2)Man(a1-3)[Gal(b1-3)[Fuc(a1-4)]GlcNAc(b1-2)Man(a1-6)]Man(b1-4)GlcNAc(b1-4)[Fuc(a1-6)]GlcNAc
Outline: as §1

[26] = target: Gal(b1-3)[Fuc(a1-4)]GlcNAc(b1-3)Gal(b1-3)[Fuc(a1-4)]GlcNAc
Outline: as §1

[27] = target: Gal(b1-3)[Fuc(a1-4)]GlcNAc(b1-3)Gal(b1-4)[Fuc(a1-3)]GlcNAc
Outline: as §1

[28] = target: Gal(b1-3)[Fuc(a1-4)]GlcNAc(b1-6)GalNAc
Outline: as §1

[29] = target: Gal(b1-3)[GlcNAc(b1-6)]GalNAc
Outline: as §1

[30] = target: Gal(b1-3)[Neu5Ac(a2-6)]GalNAc
Outline: as §1

[31] = target: Gal(b1-3)[Neu5Ac(a2-6)]GlcNAc(b1-4)Gal(b1-4)Glc
Outline: as §1

[32] = target: Gal(b1-3)[Neu5Ac(b2-6)]GalNAc
Outline: as §1

Gal(b1-4)Gal = target: Gal(b1-4)Gal
Outline: as §1

[33] = target: Gal(b1-4)GalNAc(a1-3)[Fuc(a1-2)]Gal(b1-4)GlcNAc
Outline: as §1

[34] = target: Gal(b1-4)GalNAc(b1-3)[Fuc(a1-2)]Gal(b1-4)GlcNAc
Outline: as §1

B1: GS7807E-bfa-538-23-538 (Bacteroides fragilis) (protein)
chain: TDSFESFNTNEAGFDNDSKKQDFNYYGIPLGIIQQGIYFNYDWGSGKNWPFQTMQNLGADLFSGYVHDFNPFNEGKNNSTYYMMDGWNGSTWDNTYGYIMPEVQKSETINEKDNIGFFGITKILKVELMHRLSDLYGPIVYTQFGSKTGSTPDTQQEAYKAFFNDLDTGIAKIREYQKANPDIESFAKFDILMPQGKRTFSEWIRFANSLRLRLAVRIAMADSKLAVAEAQKALTDEEGLLEGNDEVVAVSTSSGYTNPFGEINKAWGEVFMNANMESLLVGYEDPRMEKYFDKATGSDATSLIDYKGTYKGIRQGTGFSHKNYNGHSKSTITQQTDAVLMTPAEVWFLRAEAALRGWSSESVKDCYEKGVKASFAQWGAAGAEAYLESDRKPSDYVDAFKAANNVKAVNTLTPKWDDAAGNEDKLGRIITQKWLAMFPEGGEAWAEQRRTGYPRLFPVLVNQSEGTVDTNLGPRRLNFFVGIKTTNPEQYTQLVNALGGIDNCGTRLWWDTGRNF
glycan array binding signal (z-score) [1]: 0.143
glycan array binding signal (z-score) [2]: 1.24
glycan array binding signal (z-score) [3]: 1
glycan array binding signal (z-score) (Gal(b1-3)GlcNAc): -0.584
glycan array binding signal (z-score) [4]: 0.48
glycan array binding signal (z-score) [5]: 1.08
glycan array binding signal (z-score) (Gal(b1-3)GlcNAc(b1-2)Man): -0.587
glycan array binding signal (z-score) [6]: 2.49
glycan array binding signal (z-score) [7]: 2.67
glycan array binding signal (z-score) [8]: 0.459
glycan array binding signal (z-score) [9]: 0.416
glycan array binding signal (z-score) [10]: 0.812
glycan array binding signal (z-score) [11]: 0.005
glycan array binding signal (z-score) [12]: -0.682
glycan array binding signal (z-score) [13]: -0.322
glycan array binding signal (z-score) [14]: 0.801
glycan array binding signal (z-score) [15]: 0.736
glycan array binding signal (z-score) [16]: -0.346
glycan array binding signal (z-score) [17]: -0.465
glycan array binding signal (z-score) [18]: -0.627
glycan array binding signal (z-score) [19]: 1.68
glycan array binding signal (z-score) [20]: -0.525
glycan array binding signal (z-score) [21]: 1.02
glycan array binding signal (z-score) [22]: 0.289
glycan array binding signal (z-score) (Gal(b1-3)GlcNAc6S): 1.53
glycan array binding signal (z-score) [23]: -0.535
glycan array binding signal (z-score) [24]: -0.017
glycan array binding signal (z-score) [25]: -0.251
glycan array binding signal (z-score) [26]: -0.567
glycan array binding signal (z-score) [27]: -0.561
glycan array binding signal (z-score) [28]: 2.33
glycan array binding signal (z-score) [29]: -0.001
glycan array binding signal (z-score) [30]: -0.403
glycan array binding signal (z-score) [31]: -0.144
glycan array binding signal (z-score) [32]: -0.551
glycan array binding signal (z-score) (Gal(b1-4)Gal): -0.624
glycan array binding signal (z-score) [33]: -0.239
glycan array binding signal (z-score) [34]: -0.41

— the supplement of paper PMC8728848
